# Laboratory results from the supplement of paper PMC11417369.
# ± gives the standard deviation of the averaged measurements. Some of the results follow.
# System: PfAP2-LT AP2 domain (GST-tagged)
# Experiment: gcPBM binding intensity (ln(normalized median fluorescence intensity)); higher = stronger DNA binding
# Summary of the method: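 DNA-binding domains from P. falciparum, fused to GST and produced in E. coli, were put on an Agilent 4 × 180k double-stranded probe array for 1 h in 1× PBS holding 1% milk, 0.2 mg/ml BSA, 0.5% salmon testes DNA and 0.03% Triton X-100. Probes were primer-extended, 36 bp long and drawn from intergenic genomic regions, with negative controls included. After Alexa488 anti-GST antibody detection and a 488 nm scan, binding intensity was set as the highest Masliner-normalised natural-log median intensity across replicate spots of either probe orientation.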
row,Sequence,gcPBM binding intensity (ln)
1,AAAAATAAAAAAATAAATACGTATACATATATAATA [TGCATGCA_negctrl_site551],8.82 ± 0.45
2,GAACAAATTAAATAGGTGCATTAACATGTTCTATTT [GTGCAC_site9729],8.88 ± 0.53
3,GATAACTTTTTTCTCACACACAAATATTTTAATCAT [CACACA_site7685],9.12 ± 0.42
4,TAAATGTGAACAATAGAAGTAATAAGAAGAATAAAA [CACACA_negctrl_site1080],8.74 ± 0.5
5,AATGAATAATTATTTTGTACATAATATTATATTTAT [XGTACX_site5350],8.71 ± 0.52
6,TTTATTTTTTGTGGCACACAGAAGAAACAAGAACAA [CACACA_site1696],8.72 ± 0.43
7,AATAGTAATTTGAATACACACAATAATATATTTATA [CACACA_site7055],8.88 ± 0.39
8,TAACACCAAACTAAATGTACACACATACATAAATAT [XGTACX_site2201],9.35 ± 0.28
9,TCTTATATGATATTTATTTATTTATTTATTTATTCA [GTGCAC_negctrl_site686],8.72 ± 0.49
10,GGAATAGTAATATATACACACAAATACATATATATA [CACACA_site67],9.29 ± 0.46
11,TTTATTTTTTAATGATGTACTATTTATCCAGAAAAG [XGTACX_site7750],8.22 ± 0.42
12,AAATTAAATGTAAGCACACATAAATTATACTCATAT [CACACA_site5782],8.91 ± 0.45
13,ACTTATACAAAATGTGCATGTTATATTTACAATAAT [TGCATGCA_site108],8.79 ± 0.35
14,ATAAGCTCATGCAGGTGTACACAAAAAGAAAAAAAA [XGTACX_site2433],9.05 ± 0.64
15,ATAATGAAAAGGAACATACACACCCCATATAAATAT [CACACA_site3442],9.61 ± 0.12
16,AAAAAAAGTAAATGTTGTACTATAATATGTAATATA [XGTACX_site7966],8.63 ± 0.55
17,ATATACATATCCATATTTATATCTATATTTAAAACA [CACACA_negctrl_site747],8.46 ± 0.5
18,TACATATATATTATATGTACTTATATTTTTATAATA [XGTACX_site3452],8.59 ± 0.46
19,AACCACATACATATAACACACATATACAATCTATAT [CACACA_site1987],9.36 ± 0.47
20,AAATAACACTAATGATGTACTCAACTATTTATAATT [XGTACX_site8183],8.71 ± 0.47
21,TATGAAATTTTAATTACACACAGGAAAATAAAATGG [CACACA_site4935],8.8 ± 0.36
22,TAAAAAAAATATTTTTGTACGAATTAAATTTTTTTT [XGTACX_site4838],8.27 ± 0.48

row,Sequence,gcPBM binding intensity (ln)
1,ACATATTTTTAATACACACTCAAAAAAGTACTTAAC [CACACA_site3014],8.73 ± 0.4
2,TTTTTATAACTATATTATATAACTTTTGTACGAACT [CACACA_negctrl_site1423],8.7 ± 0.59
3,ACATATAAATAAATAAATATATATATATATATATAT [GTGCAC_negctrl_site378],9.44 ± 0.28
4,TATTTACACCTAATCACAAATAAAATAAAATCAAAT [CACACA_negctrl_site531],8.66 ± 0.47
5,GATAAGGTATTCAAATGTACAAAATGTTTTATATAA [XGTACX_site6863],8.65 ± 0.56
6,TAAATCAAAATAATTTAACACACAATTTTAATACTG [CACACA_site8744],8.7 ± 0.34
7,AAATTATTAAGTGATATAATATTCTATAGATGGGGA [CACACA_negctrl_site168],8.55 ± 0.43
8,TATATGATATAATATACACACATACAGATATATATA [CACACA_site4440],9.06 ± 0.32
9,AGAGGTAGAGAGAAAACATGCATAATGATTTTCATA [TGCATGCA_site958],8.79 ± 0.53
10,TAGAGGTATAAAATATGTACTTATAAAAACATGAAT [XGTACX_site8916],8.79 ± 0.45
11,TTTTCCAATTTAAAAGCATGCATCTGTTTTTTTTTT [TGCATGCA_site482],8.61 ± 0.47
12,TTTTTCATTTCTGCATTTATTTATAAATAAATATTT [CACACA_negctrl_site368],8.56 ± 0.47
13,ATATATATTATATAAGTGCATAATATTCTTTCTTTT,8.59 ± 0.39
14,TATATATTTTGTGTCTGTACACATATTATTAATTCC [XGTACX_site7507],8.85 ± 0.52
15,TTTTTTTATCAATGTTGTACTTTTTTTTTTTTCCAT [XGTACX_site8864],8.64 ± 0.56
16,TATAAGAGAATATATACACACAAAAATATATACAGT [CACACA_site1668],9.33 ± 0.34
17,TACACGCATGGACACACACACACACCCATATATATA [CACACA_site4522],10.3 ± 0.35
18,TTCAAATATAAATACACACACATAGCTACAAAATAA [CACACA_site4172],9.51 ± 0.35
19,TTCTTAAAAGGAAAGGTGCAACTTTATCATTTTCTT,8.49 ± 0.48
20,TATCATATATAAAGAGGTACGTAAGAATAGAAAATT [XGTACX_site798],9.06 ± 0.49
21,TAAATACATAAATACACACACATATATTATATATAT [CACACA_site4310],9.47 ± 0.23
22,ATATTAACTATCATAACACACACAGTAGACATATTT [CACACA_site6941],9.31 ± 0.16
